This is an account of results in the supplement of paper PMC4604168 (melanoma cell lines).

The list shows a part of the results. Repeats are few or missing, and single values can be far off.
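Further: cells treated in 1,536-well plates, then fixed and DAPI-stained, with nuclei counted from automated high-throughput microscope images.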

For the assay, the system named is A375. Briefly: cell count relative to DMSO control; melanoma cells; higher = more viable cells. The settings on record: library dose: standard library concentration; 72 h.
The compound `O=C1NC(=O)/C(=C/c2ccc(-c3ccc(F)cc3O)o2)S1` + O=C(Oc1ccc([N+](=O)[O-])cc1)N1CCC(C(O)(c2ccc3c(c2)OCO3)c2ccc3c(c2)OCO3)CC1 [JZL184] (first compound 5 µM, partner dose 5 µM) gave a cell count of 122%.

The compound `CC(C)C[C@H](NC(=O)[C@H](Cc1ccccc1)NC(=O)c1cnccn1)B(O)O` [Bortezomib] + N.N.[Cl][Pt][Cl] [cisplatin] (first compound 0.005 µM, partner dose 8 µM) registered a cell count of 78%.

`C#Cc1cccc(Nc2ncnc3cc(OCCOC)c(OCCOC)cc23)c1` [erlotinib] + C[As](C)SC[C@H](NC(=O)CC[C@H](N)C(=O)O)C(=O)NCC(=O)O [Darinaparsin] (first compound 4 µM, partner dose 2 µM) had a cell count of 96.1%.

In the case of `CC(C)C[C@H](NC(=O)[C@H](Cc1ccccc1)NC(=O)c1cnccn1)B(O)O` [Bortezomib] + O=C(Oc1ccc([N+](=O)[O-])cc1)N1CCC(C(O)(c2ccc3c(c2)OCO3)c2ccc3c(c2)OCO3)CC1 [JZL184] (first compound 0.005 µM, partner dose 5 µM), the cell count amounted to 84.5%.

Turning to `Cc1nc(Nc2ncc(C(=O)Nc3c(C)cccc3Cl)s2)cc(N2CCN(CCO)CC2)n1` [dasatanib] + O=C(Oc1ccc([N+](=O)[O-])cc1)N1CCC(C(O)(c2ccc3c(c2)OCO3)c2ccc3c(c2)OCO3)CC1 [JZL184] (first compound 0.02 µM, partner dose 5 µM), the cell count was determined as 53.6%.

Consider `Cc1cc(Nc2cc(N3CCN(C)CC3)nc(Sc3ccc(NC(=O)C4CC4)cc3)n2)n[nH]1` [Tozasertib] + Cn1cc(C2=C(c3cn(C4CCN(Cc5ccccn5)CC4)c4ccccc34)C(=O)NC2=O)c2ccccc21 [Enzastaurin] (first compound 0.03 µM, partner dose 4 µM), for which the cell count is 79.4%.

With `Oc1nc(-c2ccc(C(F)(F)F)cc2)nc2c1CSCC2` + O=C(Oc1ccc([N+](=O)[O-])cc1)N1CCC(C(O)(c2ccc3c(c2)OCO3)c2ccc3c(c2)OCO3)CC1 [JZL184] (first compound 10 µM, partner dose 5 µM), the cell count came to 90.4%.

In turn, `CO[C@H]1C[C@@H]2CC[C@@H](C)[C@@](O)(O2)C(=O)C(=O)N2CCCC[C@H]2C(=O)O[C@H]([C@H](C)C[C@@H]2CC[C@@H](OCCO)[C@H](OC)C2)CC(=O)[C@H](C)/C=C(\C)[C@@H](O)[C@@H](OC)C(=O)[C@H](C)C[C@H](C)/C=C/C=C/C=C/1C` [everolimus] + O=C(Oc1ccc([N+](=O)[O-])cc1)N1CCC(C(O)(c2ccc3c(c2)OCO3)c2ccc3c(c2)OCO3)CC1 [JZL184] (first compound 0.1 µM, partner dose 5 µM) returned a cell count of 91%.

As to `O=C(O)C(=O)Nc1sc2c(c1C(=O)O)CCNC2` + O=C(Oc1ccc([N+](=O)[O-])cc1)N1CCC(C(O)(c2ccc3c(c2)OCO3)c2ccc3c(c2)OCO3)CC1 [JZL184] (first compound 8.33333 µM, partner dose 5 µM), the cell count is 161%.

As for `Cn1c(Nc2ccc(C(F)(F)F)cc2)nc2cc(Oc3ccnc(-c4ncc(C(F)(F)F)[nH]4)c3)ccc21` + C/C(O)=C(\C#N)C(=O)Nc1cc(Br)ccc1Br [LFM-A13] (first compound 0.4 µM, partner dose 10 µM), the cell count was 72%.

The compound `C#Cc1cccc(Nc2ncnc3cc(OCCOC)c(OCCOC)cc23)c1` [erlotinib] + Cc1cc(SCc2sc(-c3ccc(C(F)(F)F)c(F)c3)nc2C)ccc1OCC(=O)O [GW0742] (first compound 4 µM, partner dose 10 µM) yielded a cell count of 118%.

On to `O=C(CCCCCCC(=O)Nc1ccccc1)NO` [vorinostat] + O=C(Oc1ccc([N+](=O)[O-])cc1)N1CCC(C(O)(c2ccc3c(c2)OCO3)c2ccc3c(c2)OCO3)CC1 [JZL184] (first compound 0.4 µM, partner dose 5 µM), for which the cell count amounted to 119%.

The compound `O=C(O)c1ccc2c(c1)nc(Nc1cccc(Cl)c1)c1ccncc12` + C[As](C)SC[C@H](NC(=O)CC[C@H](N)C(=O)O)C(=O)NCC(=O)O [Darinaparsin] (first compound 2 µM, partner dose 2 µM) gave a cell count of 52.2%.

Consider `Cc1cc(Nc2cc(N3CCN(C)CC3)nc(Sc3ccc(NC(=O)C4CC4)cc3)n2)n[nH]1` [Tozasertib] + N.N.[Cl][Pt][Cl] [cisplatin] (first compound 0.03 µM, partner dose 8 µM), for which the cell count is 90.6%.

In the case of `Cc1cc(Nc2cc(N3CCN(C)CC3)nc(Sc3ccc(NC(=O)C4CC4)cc3)n2)n[nH]1` [Tozasertib] + C[As](C)SC[C@H](NC(=O)CC[C@H](N)C(=O)O)C(=O)NCC(=O)O [Darinaparsin] (first compound 0.03 µM, partner dose 2 µM), the cell count was determined as 79.5%.

Turning to `COc1ccc(COc2ccc(Cc3cnc(N)nc3N)cc2OC)cc1` + C/C(O)=C(\C#N)C(=O)Nc1cc(Br)ccc1Br [LFM-A13] (first compound 5 µM, partner dose 10 µM), the cell count was found to be 73.7%.

The compound `Clc1ccc(Nc2nnc(Cc3ccncc3)c3ccccc23)cc1` [vatalanib] + C[As](C)SC[C@H](NC(=O)CC[C@H](N)C(=O)O)C(=O)NCC(=O)O [Darinaparsin] (first compound 10 µM, partner dose 2 µM) yielded a cell count of 69.1%.

In the case of `CN1CCN(c2ccc3nc(-c4c(N)c5c(F)cccc5[nH]c4=O)[nH]c3c2)CC1` [Dovitinib] + C[As](C)SC[C@H](NC(=O)CC[C@H](N)C(=O)O)C(=O)NCC(=O)O [Darinaparsin] (first compound 0.5 µM, partner dose 2 µM), the cell count turned out to be 65.1%.

The compound `Clc1ccc(Nc2nnc(Cc3ccncc3)c3ccccc23)cc1` [vatalanib] + Cc1cc(SCc2sc(-c3ccc(C(F)(F)F)c(F)c3)nc2C)ccc1OCC(=O)O [GW0742] (first compound 10 µM, partner dose 10 µM) showed a cell count of 90.7%.

`O=C(O)c1ccc2c(c1)nc(Nc1cccc(Cl)c1)c1ccncc12` + C/C(O)=C(\C#N)C(=O)Nc1cc(Br)ccc1Br [LFM-A13] (first compound 2 µM, partner dose 10 µM) returned a cell count of 70.1%.

The compound `Nc1ccn([C@@H]2O[C@H](CO)[C@@H](O)C2(F)F)c(=O)n1` [gemcitabine] + Cc1cc(SCc2sc(-c3ccc(C(F)(F)F)c(F)c3)nc2C)ccc1OCC(=O)O [GW0742] (first compound 0.002 µM, partner dose 10 µM) had a cell count of 114%.

`Cn1c(Nc2ccc(C(F)(F)F)cc2)nc2cc(Oc3ccnc(-c4ncc(C(F)(F)F)[nH]4)c3)ccc21` + O=C(Oc1ccc([N+](=O)[O-])cc1)N1CCC(C(O)(c2ccc3c(c2)OCO3)c2ccc3c(c2)OCO3)CC1 [JZL184] (first compound 0.4 µM, partner dose 5 µM) showed a cell count of 70.6%.

Compound `CC(C)C[C@H](NC(=O)[C@H](Cc1ccccc1)NC(=O)c1cnccn1)B(O)O` [Bortezomib] + C[As](C)SC[C@H](NC(=O)CC[C@H](N)C(=O)O)C(=O)NCC(=O)O [Darinaparsin] (first compound 0.005 µM, partner dose 2 µM) returned a cell count of 64.6%.

Take `CO[C@H]1C[C@@H]2CC[C@@H](C)[C@@](O)(O2)C(=O)C(=O)N2CCCC[C@H]2C(=O)O[C@H]([C@H](C)C[C@@H]2CC[C@@H](OCCO)[C@H](OC)C2)CC(=O)[C@H](C)/C=C(\C)[C@@H](O)[C@@H](OC)C(=O)[C@H](C)C[C@H](C)/C=C/C=C/C=C/1C` [everolimus] + C[As](C)SC[C@H](NC(=O)CC[C@H](N)C(=O)O)C(=O)NCC(=O)O [Darinaparsin] (first compound 0.1 µM, partner dose 2 µM): the cell count came out at 82.9%.

Turning to `Cc1cc(Nc2cc(N3CCN(C)CC3)nc(Sc3ccc(NC(=O)C4CC4)cc3)n2)n[nH]1` [Tozasertib] + C[C@]12O[C@H](C[C@]1(O)CO)n1c3ccccc3c3c4c(c5c6ccccc6n2c5c31)CNC4=O [Lestaurtinib] (first compound 0.03 µM, partner dose 0.02 µM), the cell count was found to be 111%.

Consider `COCC[n+]1c2c(n(Cc3cnccn3)c1C)C(=O)c1ccccc1C2=O` + O=C(Oc1ccc([N+](=O)[O-])cc1)N1CCC(C(O)(c2ccc3c(c2)OCO3)c2ccc3c(c2)OCO3)CC1 [JZL184] (first compound 0.002 µM, partner dose 5 µM), for which the cell count amounted to 48.6%.

`CN1CCN(c2ccc3nc(-c4c(N)c5c(F)cccc5[nH]c4=O)[nH]c3c2)CC1` [Dovitinib] + Cc1cc(SCc2sc(-c3ccc(C(F)(F)F)c(F)c3)nc2C)ccc1OCC(=O)O [GW0742] (first compound 0.5 µM, partner dose 10 µM) had a cell count of 105%.

Turning to `C=CCn1c(=O)c2cnc(Nc3ccc(N4CCN(C)CC4)cc3)nc2n1-c1cccc(C(C)(C)O)n1` + C/C(O)=C(\C#N)C(=O)Nc1cc(Br)ccc1Br [LFM-A13] (first compound 0.1 µM, partner dose 10 µM), the cell count is 51.5%.

Consider `CC(C)C[C@H](NC(=O)[C@H](Cc1ccccc1)NC(=O)c1cnccn1)B(O)O` [Bortezomib] + Cc1cc(SCc2sc(-c3ccc(C(F)(F)F)c(F)c3)nc2C)ccc1OCC(=O)O [GW0742] (first compound 0.005 µM, partner dose 10 µM), for which the cell count turned out to be 90%.

Regarding `C[C@@H]1CCN(C(=O)CC#N)C[C@@H]1N(C)c1ncnc2[nH]ccc12` + O=C(Oc1ccc([N+](=O)[O-])cc1)N1CCC(C(O)(c2ccc3c(c2)OCO3)c2ccc3c(c2)OCO3)CC1 [JZL184] (first compound 5 µM, partner dose 5 µM), the cell count came out at 103%.
